# Test results reported in PubChem BioAssay AID2202238 (Ras Initiative Chemistry Research Team, Frederick National …, 2025).
# The whole screen tested about 2,200 compounds, of which fewer than 10 were called active. Some of the results follow. Entries without a call are filed as inconclusive in the source.
# Molecular target: GTPase KRas (Homo sapiens) (UniProt P01116)
# Experiment: Fragment capture on engineered cysteines, share of protein labelled (AID 2202238)
# Parameters: protein at 5 µM with 500 µM competing thiol for 1.5 h
# Conditions: KRAS G12D cysteine mutants, disulfide tethering, MALDI-TOF labeling; stronger effect = higher value; H27C mutant labeling; fragment at 500 µM
# UniProt P01116, sequence (P01116 whole entry, looked up, the tested form may be a part): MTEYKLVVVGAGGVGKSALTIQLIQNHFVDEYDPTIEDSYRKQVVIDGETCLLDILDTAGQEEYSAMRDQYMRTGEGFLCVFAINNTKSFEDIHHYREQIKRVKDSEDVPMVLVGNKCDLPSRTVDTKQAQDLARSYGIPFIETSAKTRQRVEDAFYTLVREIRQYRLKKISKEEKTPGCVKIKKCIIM
row,SMILES,percent labeling [%]
1,O=C(CCS)Nc1cccc(-c2cccnc2)c1,42.2
2,O=C(CCS)NC1(c2ccc(F)cc2F)CCCCC1,33.6
3,Cc1ccc(NC(=O)CCS)cc1Oc1ccc(Cl)cc1,24.7
4,Cc1cccc(=O)n1CC(C)(O)C(=O)NCCS (stereo not drawn),24.8
5,O=C(CCS)N1CCC(O)(C2CCCCC2)CC1,41
6,Cc1ccc(C2=CCN(C(=O)CCS)CC2)cc1,3.7
7,O=C(NCCS)c1cnnn1-c1ccccc1Br,37.9
8,O=C(CCS)N1CCC(Cn2cc(Br)cn2)CC1,57.8
9,COC(=O)c1cn(C2CCCN(C(=O)CCS)C2)nn1 (stereo not drawn),33.4
10,O=C(NCCS)c1cnc(-c2ccc(C(F)(F)F)cc2)[nH]1,27.7
11,COC1CCCCN(CC(=O)NCCS)C1=O (stereo not drawn),30.3
12,O=C(CCS)N1CCC(c2cc(=O)[nH]o2)CC1,20.1
13,Cc1cc(NC(=O)CCS)ccc1Oc1ccncc1,48.9
14,O=C(CCS)N1CCC(c2ccc(F)cc2)CC1,40.5
15,O=C(CCS)Nc1ccn(CCc2ccccn2)n1,35.6
16,O=C(CCS)NCc1cccc(-c2ccn[nH]2)c1,36.6
17,O=C(CCS)N1CCN(c2ccc(O)cc2)CC1,34
18,O=C(NCCS)c1cn[nH]c1C1CCOCC1,42.1
19,O=C(CCS)NCC(O)c1ccc(O)cc1 (stereo not drawn),29.1
20,COc1ncc(Br)cc1CNC(=O)CCS,44.6
21,O=C(CCS)NC(c1ccc(Cl)c(F)c1)c1nn[nH]n1 (stereo not drawn),33.4
22,O=C(CCC(=O)N1CC(=O)Nc2ccccc21)NCCS,32.7
23,CC(C)(CC(=O)NCCS)Cc1ccc(Cl)cc1,25.1
24,Cc1nc2c(o1)CCCC2CC(=O)NCCS (stereo not drawn),30.8

row,SMILES,percent labeling [%]
1,Cc1ccc(N(Cc2cccs2)C(=O)CCS)cc1,35.7
2,Cc1n[nH]c(=O)c(CNC(=O)CCS)c1C,38.6
3,O=C(NCCS)c1ccnn1C1CCOCC1,37.6
4,O=C(NCCS)c1cn[nH]c1-c1ccc(F)c(Cl)c1,46.2
5,O=C(NCCS)C1(c2ccccc2F)CCCC1,38.3
6,O=C(CCS)NCCc1nc2ncc(Br)cn2n1,30.6
7,Cc1sc(=O)n(CC(=O)NCCS)c1-c1ccccc1,32.5
8,COCCN(CCOc1ccc(F)cc1)C(=O)CCS,42.2
9,O=C(CCS)NC1CCCN(c2cc(=O)[nH]cn2)C1 (stereo not drawn),34.3
10,Cc1cc(N2CCC(NC(=O)CCS)C2)n(C)n1 (stereo not drawn),24.8
11,O=C(CCS)N1Cc2ccc(O)cc2C2(CC2)C1,33.9
12,O=C(NCCS)c1ccc(Cc2ccccc2)[nH]1,18.7
13,O=C(CCS)Nc1ccc2c(=O)cc[nH]c2c1,35.2
14,CC(C)(C)c1ccc2[nH]c(C(=O)NCCS)cc2c1,9.4
15,CC(=O)NC1(c2noc(CCC(=O)NCCS)n2)CCCCCC1,23.8
16,Cc1c[nH]c(=O)n1-c1ccc(C(=O)NCCS)cc1,19
17,O=C(CCS)N1CCN(c2ccc(F)cc2Cl)CC1,44.1
18,CC(=O)Nc1ccc(CNC(=O)CCS)cc1,37.1
19,O=C(CCS)N1CC(c2nnc(CO)s2)C1,20.3
20,Cn1cnc2ccc(C(=O)NCCS)nc21,47.5
21,Cc1cc(C)n2nc(C)c(C(=O)NCCS)c2n1,35.3
22,COc1ccccc1Cn1cnc2cc(C(=O)NCCS)ccc21,32.5
23,Cc1cc(C)c(C)c(OCCC(=O)NCCS)c1,18.5
24,O=C(NCCS)c1c[nH]cc1Cc1ccccc1,14.9

row,SMILES,percent labeling [%]
1,Cc1cc(NC(=O)CCS)nn1Cc1cccc(C(F)(F)F)c1,29.9
2,Cc1c(C(=O)NCCS)oc2ccccc2c1=O,30.7
3,O=C(CCS)Nc1ccn(Cc2cn3ccccc3n2)n1,41.6
4,O=C(NCCS)c1cccc(C(=O)Nc2ccccc2)c1,27.4
5,Cn1nc(NC(=O)CCS)cc1COCCC(F)(F)F,39.7
6,O=C(CCS)NC1CCN(C2CCC2)CC1,42.7
7,O=C(NCCS)c1cc2n(n1)CCCC2,43.6
8,O=C(NCCS)c1cnn(C2CCOCC2)c1,38.3
9,CN(C)c1ncc2c(n1)CCN(C(=O)CCS)C2,27.9
10,Cc1nn(C)cc1CN(CCO)C(=O)CCS,25
11,CC(C)(C(=O)NCCS)c1cccc(Cl)c1F,44
12,Cc1ccc(C2CCCN2C(=O)CCS)s1 (stereo not drawn),28.9
13,CCn1cc(NC(=O)CCS)c(C(=O)NCCc2ccccc2)n1,37.1
14,Cc1cc(C(=O)NCCS)sc1-c1ccccc1,27.2
15,O=C(CCS)NCc1nc(-c2cccs2)n[nH]1,38.2
16,CN(Cc1ccccc1)C(=O)NCCC(=O)NCCS,32.1
17,CC(C(=O)NCCS)C1OCCc2sccc21 (stereo not drawn),37.7
18,O=C(NCCS)c1cc(N2CCCC2=O)ccc1F,43.3
19,O=C(CCS)NC1CCN(C(=O)CCc2ccccc2)CC1,38.2
20,O=C(CCS)Nc1cnn(-c2cnc3ccccc3n2)c1,46.7
21,O=C(CCS)N1CCOCC1c1noc(-c2ccccc2)n1 (stereo not drawn),39.5
22,O=C(NCCS)C1CCCCN1C(=O)C1CCCC1 (stereo not drawn),26.3
23,COc1ccc2[nH]c(C)c(C(=O)NCCS)c2c1,36
24,Cc1cc2c(cc(C(=O)NCCS)n2CC(F)(F)F)s1,22.9

row,SMILES,percent labeling [%]
1,O=C(NCCS)C1CCCN1C(=O)Cc1ccc2ccccc2c1 (stereo not drawn),31.4
2,CC(C)(COc1ncccc1Br)NC(=O)CCS,30.7
3,O=C(NCCS)[C@@H]1OCCO[C@@H]1C(F)(F)F,38.5
4,Cc1sc(=O)n(CCC(=O)NCCS)c1C,24.3
5,CN(Cc1ccc(-c2ccc(Br)cc2)o1)C(=O)CCS,20.7
6,CCc1ccc(-c2csc(NC(=O)CCS)n2)s1,33.6
7,O=C(CN1CCC(c2ccccc2)NC1=O)NCCS (stereo not drawn),35.4
8,Cc1nc2c(C#N)c[nH]n2c(=O)c1CC(=O)NCCS,19.2
9,Cn1ccnc1N1CCC(C(=O)NCCS)C1 (stereo not drawn),10.2
10,CN(C)CCN(Cc1ccco1)C(=O)CCS,49
11,O=C(CCS)NCc1nnc2n1CCC(C(F)(F)F)C2 (stereo not drawn),31.6
12,O=C(CN1C(=O)COc2cc(Br)ccc21)NCCS,26.6
13,O=C(CCS)N1CCCC(Cn2cnc3ccccc32)C1 (stereo not drawn),47
14,Cn1nnnc1N1CCC(NC(=O)CCS)CC1,33.8
15,COc1ccc(-c2nc(CC(=O)NCCS)cs2)cc1OC,36.3
16,CCCc1c(NC(=O)CCS)cnn1-c1cc(F)c(OC)cc1F,33.2
17,CNC(=O)[C@@H]1Cc2ccccc2CN1C(=O)CCS,32.7
18,O=C(CCS)NCCn1ncc(Br)n1,36.4
19,O=C(NCCS)c1nn(-c2ccc(F)cc2)ccc1=O,46.3
20,O=C(CC1CCC2(CCOCC2)CO1)NCCS (stereo not drawn),31
21,O=C(CCS)Nc1ccc2ccc(O)cc2c1,33.8
22,O=C(CCS)NC1(c2nn[nH]n2)CCCC1,20.3
23,O=C(NCCS)c1ccc(OCc2ccccc2)cc1,11.7
24,Cn1cc(-c2cc(F)ccc2NC(=O)CCS)cn1,37.6

row,SMILES,percent labeling [%]
1,Cn1nc(C(F)(F)F)nc1CNC(=O)CCS,28.9
2,COc1cccc(CNC(=O)CCS)c1OC(F)F,41.6
3,O=C(CCS)NCc1nnnn1CC1CC1,32.1
4,O=C(NCCS)c1cc(-c2c[nH]c3ccccc23)n[nH]1,20.7
5,O=C(CCS)N1CCN(c2ccccc2)C(=O)C1,33.1
6,O=C(CCS)N1CCC(c2nc(C3CC3)n[nH]2)CC1,39.8
7,CN1CCN(Cc2ccc(CNC(=O)CCS)cc2)CC1,52.2
8,O=C(CCS)Nc1ccc(-c2ncc3n2CCCC3)cc1,48.5
9,CCCn1ccnc1-c1cccc(NC(=O)CCS)c1,50.2
10,O=C(CN1C(=O)C2CCCCC2C1=O)NCCS (stereo not drawn),31.5
11,O=C(CCCOc1ccc2c(c1)OCO2)NCCS,34.7
12,Cn1c(=O)oc2cc(NC(=O)CCS)ccc21,34.5
13,CC(C(=O)NCCS)N1C(=O)c2ccccc2C1=O (stereo not drawn),32.1
14,O=C(NCCS)c1ccc2cncc(Br)c2n1,39.9
15,O=C(NCCS)c1ccc(F)c2ccsc12,18.7
16,O=C(CCS)NCC1(c2ccccc2)CCOCC1,34.3
17,O=C(NCCS)c1[nH]c2ccc(Cl)cc2c1Cl,20.9
18,COC(=O)c1cc2n(n1)CCCC2NC(=O)CCS (stereo not drawn),33.4
19,O=C(/C=C/c1ccc(O)c(O)c1)NCCS,37
20,CN1C[C@@H](C(=O)NCCS)[C@H](c2ccccc2)C1,43
21,O=C(NCCS)c1[nH]ccc1-c1c(Cl)cccc1Cl,20.9
22,CC(C)C(NC(=O)c1ccc(Cl)cc1)C(=O)NCCS (stereo not drawn),27.4
23,Cc1sc(NC(=O)CCS)nc1-c1ccccc1,41.7
24,CC(C)c1cccc(N2CC(C(=O)NCCS)CC2=O)c1 (stereo not drawn),35.9

row,SMILES,percent labeling [%]
1,N#Cc1cn(CC(F)(F)F)nc1NC(=O)CCS,39.3
2,O=C(CCS)NCCc1cnc(SC2CCCC2)nc1,36.2
3,O=C(CCS)NCc1cn2c(n1)CCCC2,35.5
4,CC(c1ccccc1)c1cc(C(=O)NCCS)n[nH]1 (stereo not drawn),33.9
5,Cc1nc(C(=O)NCCS)nn1-c1n[nH]c(C(F)(F)F)n1,24
6,O=C(CCS)Nc1cccc(NC(=O)c2ccc3c(c2)OCO3)c1,21.9
7,O=C(CCS)NC1(c2noc(-c3cccnc3)n2)CCCCCC1,38.7
8,O=C(COc1cccc(N2CCCC2=O)c1)NCCS,35.7
9,Cn1cc(-c2cccc(C(=O)NCCS)c2)cn1,42
10,O=C(NCCS)c1oc2ccccc2c1COc1ccccc1,27.2
11,O=C(NCCS)c1cc2sc3ccccc3c2s1,15.4
12,COc1ccc2cc(C(=O)NCCS)n(C)c2c1,20.1
13,O=C(NCCS)c1cnn(-c2ncccc2Cl)c1C(F)(F)F,40.3
14,O=C1CC2(CCOC2)C(C(=O)NCCS)CN1 (stereo not drawn),26.3
15,O=C(NCCS)c1ccn(-c2ccc(Cl)cc2Cl)n1,32.4
16,Cc1cccc(C)c1-n1nnnc1CNC(=O)CCS,41.4
17,O=C(CCCOc1ccc2c(c1)CCC(=O)N2)NCCS,40.8
18,Cn1cc(C(=O)NCCS)c2c(c1=O)CCCC2,38.7
19,O=C1CC(C(F)(F)F)C(C(=O)NCCS)N1 (stereo not drawn),35.5
20,O=C(CCS)NCc1conc1C1CCC1,42
21,O=C(CCS)NCc1ccncc1OCC(F)(F)F,35.6
22,COCCC1(c2nc(C)no2)CCN(C(=O)CCS)CC1,38.3
23,O=C(CCS)NC1(c2ccc(Br)cn2)CCC1,45.7
